Out of some 48,000 compounds screened, about 120 (0.25%) were called active. Another 4% or so got no clear call; they are omitted. Calls follow the shape of the dose curve; as a rule, active = well fitted activation curve with a large enough effect; inconclusive = small, poorly fitted or top-dose-only effect, or another doubt; inactive = no such curve, though single readings can be large or run the other way. This is one part of the list.
Assay: Primary qHTS for Identification of Small Molecule Activators of Huntingtin-Antisense Promoter Activity; also: nearly all actives have a fitted effect of over 55% in size
Settings: HEK293 HTT-AS promoter firefly luciferase reporter (activity 0% = vehicle and -100% = no light), 24 h; series mostly up to 57.5 µM; activity change, positive = activation: at the top concentration
In short: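 Firefly luciferase readout (Dual-Glo, 10 min RT) after 24 h, 37 °C compound exposure (final up to 57.5 uM) of HEK293 reporter cells cultured 24 h beforehand; PTC124 at 50 uM final as control inhibitor; activity scaled vehicle 0%, zero RLU -100%.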

Row | SMILES | activity change, positive = activation
1 | COc1ccc(-n2nc(C(=O)Nc3ccccn3)c3c4ccccc4n(C)c3c2=O)cc1 | inactive: -8.99%
2 | COc1ccccc1OC(C)C(=O)Nc1cccc(-c2nc3ccccc3s2)c1 (configuration not stated) | inactive: 9.12%
3 | CCOC(=O)c1ccc(NC(=O)c2cnc3c(-c4ccc(F)cc4)c(C)nn3c2C)cc1 | inactive: -1.04%
4 | CCOc1ccc(-c2nc3c(c(SCC(=O)Nc4ccccc4C)n2)Cc2ccccc2O3)cc1 | inactive: 13.4%
5 | Cc1ccccc1NC(=O)CC(NCc1cccnc1)C(=O)O (configuration not stated) | inactive: -0.616%
6 | Cc1cc(C)cc(NC(=O)Cn2c(-c3cncs3)nc3ccccc32)c1 | inactive: -16.9%
7 | COc1ccc(NC(=O)CN2C(=O)CCn3nc(-c4cccn4C)cc32)cc1Cl | inactive: -21.9%
8 | O=S(=O)(c1ccc(-c2cc(C(F)(F)F)on2)s1)N1CCN(c2ccccc2F)CC1 | inactive: -10.6%
9 | COC(=O)c1ccccc1NC(=O)c1cc(-c2ccccc2O)no1 | inactive: -21.6%
10 | CC(=O)Nc1nonc1-c1nnc(SCC(=O)Nc2ccc(C)cc2)n1-c1ccccc1 | inactive: -14.3%
11 | CCOC(=O)c1sc2cccc(F)c2c1S(=O)(=O)NCc1ccccc1Cl | inactive: -29.1%
12 | COc1ccc(-c2cc(-c3ccccc3)c(C#N)c(SCC(O)CS(=O)(=O)Cc3ccc(Cl)cc3)n2)cc1 (configuration not stated) | inactive: -15.7%
13 | O=C(CS(=O)(=O)c1cccc2nsnc12)N1CCN(c2cccc(Cl)c2)CC1 | inactive: -18.1%
14 | CCCN1CCN(c2ncnc3sc(C(=O)Nc4ccc(C(C)C)cc4)c(C)c23)CC1 | inactive: -8.91%
15 | COc1cc(SC)ccc1C(=O)Nc1ccc(S(=O)(=O)Nc2nccc(C)n2)cc1 | inactive: 1.32%
16 | COc1cccc(N2CCN(C(=O)c3ccc(C)c(NC(=O)c4nsc5ccccc45)c3)CC2)c1 | inactive: 3.06%
17 | Cc1ccc(C(c2sc3nc(-c4ccco4)nn3c2O)N2CCCC2)cc1 (configuration not stated) | inactive: -6.68%
18 | Cc1ccc(N(CC(=O)NCCc2ccc(Cl)cc2)S(=O)(=O)c2c(C)noc2C)cc1 | inactive: -30.8%
19 | COc1ccc(CN2CCc3c(c(=O)n4ncc(C(=O)N5CCN(c6ccccc6OC)CC5)c4n3C)C2)cc1 | inactive: -87.6%
20 | Cc1cccc(NC(=O)Cn2nnc(-c3nc(-c4ccncc4)no3)c2N)c1 | inactive: 3.82%
21 | CC(C)OC(=O)C(C)(C)Oc1ccc(C(=O)c2ccc(Cl)cc2)cc1 | inactive: -12.1%
22 | Cc1ccc(NC(=O)CN2C(=O)c3ccccc3Sc3ccc(C(=O)N4CCOCC4)cc32)cc1F | inactive: -28.3%
23 | CCc1ccc(-n2c(=O)c3c4c(sc3n(CC(=O)c3ccc(F)cc3)c2=O)CCC4)cc1 | inactive: -7.14%
24 | COc1ccc(-c2ccc3c(N)c(C(=O)c4ccc(OC)c(OC)c4)sc3n2)cc1 | inactive: -14.4%

Row | SMILES | activity change, positive = activation
25 | CCC(C)NC(=O)CCCN1C(=O)CCn2nc(-c3cccn3C)cc21 (configuration not stated) | inactive: 8.18%
26 | CCc1cccc(NC(=O)COC(=O)c2cn(CC)c3nc(C)ccc3c2=O)c1 | inactive: -2.35%
27 | COc1ccc(CNC(=O)c2ccc(-c3nc(CSc4ccccc4)c(C)o3)cc2)cc1OC | inactive: 6.33%
28 | COc1ccc(CNC(=O)CSCc2nc(-c3ccccc3C)oc2C)cc1 | inactive: -8.13%
29 | CCCc1cc(=O)[nH]c(SCC(=O)N2CCN(c3ccccc3)CC2)n1 | inactive: -23.5%
30 | COc1ccccc1C(=O)Nc1ccccc1OCc1cc(=O)n2c(C)csc2n1 | inactive: 2.52%
31 | CC(C)c1nn2c(=O)cc(COC(=O)c3ccc(NC(=O)COc4ccccc4)cc3)nc2s1 | inactive: -2.5%
32 | CCN(CC)S(=O)(=O)c1cccc(C(=O)Nc2ccccc2C(=O)Nc2ccc(Cl)cc2)c1 | inactive: -19.6%
33 | Cc1ccc(-n2c(/C=C/c3c(C)n(C)c4ccccc34)nc3ccccc3c2=O)cc1 | inactive: 19.2%
34 | Cc1ccc(C)c(NS(=O)(=O)c2cc3c(cc2C)n(C)c(=O)c(=O)n3C)c1 | inactive: -12.7%
35 | CCOC(=O)c1c(NC(=O)Cc2coc3cc(C)cc(C)c23)sc2c1CCC2 | inactive: -16.6%
36 | CC(=O)c1ccc(NC(=O)c2cc(C)nn2-c2ccccc2)cc1 | inactive: 9.78%
37 | COCCN(CCOC)S(=O)(=O)c1ccc(C(=O)Nc2sc3c(c2C(=O)OC)CCN(C)C3)cc1 | inactive: -11.4%
38 | Cc1ccc(NC(=O)c2cc(S(=O)(=O)N3CCC4(CC3)OCCO4)ccc2F)cc1Cl | inactive: -28.9%
39 | CCOc1cccc(C(=O)Nc2ccc(-c3nc4ncccc4o3)cc2C)c1 | inactive: 14.3%
40 | CCOC(=O)c1ccccc1NC(=O)c1sc2nc3n(c(=O)c2c1C)CCCCC3 | inactive: -12.1%
41 | CN(C)S(=O)(=O)N(CC(=O)NCCSCc1c(F)cccc1Cl)c1ccccc1 | inactive: -20.9%
42 | COC(=O)c1c(NC(C)=O)c2c3c(sc2n1Cc1cc(C)ccc1C)CCCC3 | inactive: -7.73%
43 | CCCN1CCN(CCCNC(=O)c2cc3c(=O)n(CC)c4ccccc4c3s2)CC1 | inactive: -10.7%
44 | O=c1[nH]c(SCc2c(F)cccc2Cl)nc2c1CCC2 | inactive: -13.4%
45 | Cc1ccc(-n2c(SCc3ccccc3F)nc3[nH]ncc3c2=O)cc1Cl | inactive: -37%
46 | CCc1cccc(NC(=O)Cn2c(C(=O)OC)cc3sc(Cl)cc32)c1 | inactive: -5.82%
47 | CCN(CC)CCNC(=O)C1CCN(C(=O)c2cnn(-c3ccccc3)c2-n2cccc2)CC1 | inactive: -7.45%
